This is an account of results in PubChem BioAssay AID1240 (Sanford-Burnham Center for Chemical Genomics, 2008).

In all, about 50,000 compounds went through this assay and about 800 (1.6%) showed an effect of 50% or more. Some of the results follow.

The test concerns the target Bcl-2-like protein 10 (Homo sapiens) (UniProt Q9HD36). Kind of test: Phenotype converters, Bcl-B/TR3 peptide binding displacement, primary biochemical FP (AID 1240).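 Note: 0% = Bcl-B with tracer peptide and DMSO and 100% = tracer peptide lacking Bcl-B.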 The conditions noted are these: GST-Bcl-B / FITC-TR3 peptide fluorescence polarization; stronger effect = higher value; compound at 3.75 mg/L.
Chain of UniProt Q9HD36 (Q9HD36 whole entry, looked up): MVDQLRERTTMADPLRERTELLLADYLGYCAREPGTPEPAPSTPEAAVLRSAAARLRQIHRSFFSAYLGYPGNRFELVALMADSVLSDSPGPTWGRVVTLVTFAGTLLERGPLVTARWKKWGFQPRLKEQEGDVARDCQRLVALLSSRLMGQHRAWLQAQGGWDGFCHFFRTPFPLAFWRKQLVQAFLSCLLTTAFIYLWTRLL
On to `CCOc1cc(C2Nc3ccccc3C(=O)N2Cc2ccccc2)ccc1O` (centres undefined), for which the displacement was determined as 8.5%.
The value for `O=c1cnnc(N/N=C/C=C/c2ccccc2)[nH]1` was -5.7%.
The value for `CCOc1ccc(N(CC(=O)NCCOC)S(=O)(=O)c2ccc(SC)cc2)cc1` was -7%; that for `CCOC(=O)C1=C(O)CSC1=Nc1ccccc1` was 0.1%.
Under `O=C(c1ccccc1Cl)N1CCN(c2ccc(Cl)cc2)CC1` stands -5%; under `COC(=O)C1=C(C)NC(=O)CC1c1cccc(Cl)c1` (centres undefined), 7.5%.
On to `O=C(O)CC(NC(=O)COc1ccc(Cl)cc1Cl)C(=O)O` (centres undefined), for which the displacement was -5.6%.
Take `CC(NS(=O)(=O)c1cccs1)c1ccccc1` (centres undefined): the displacement was -1.7%.
Under `COc1ccc(/C=C2/SC(=S)N(C(C)c3ccccc3)C2=O)cc1` (centres undefined) stands -43%.
Under `COc1cccc(NC(=O)COc2ccc(C(C)(C)c3ccccc3)cc2)c1` stands 8.5%.
On to `COc1ccc(C2CC(=O)C3=C(C2)Nc2ccccc2NC3c2ccc(SC)cc2)cc1OC` (centres undefined), for which the displacement is -13.6%.
In the case of `Clc1cccc(-n2ncnc2-c2ccc(Br)cc2)c1`, the displacement is -4%.
In the case of `Cc1cc(OCC(=O)N2CCN(c3ccccc3)CC2)ccc1Br`, the displacement turned out to be 5.2%.
In the case of `C=C(C)Cn1c(Cc2ccccc2)n[nH]c1=S`, the displacement is -9.5%.
Under `COc1ccccc1C1CC(c2ccc(F)cc2)=NN1c1ccccc1` (centres undefined) stands 5.4%; under `Cc1ccc2c(c1)N(C(=O)Nc1ccccc1)C(C)(C)CC2C` (centres undefined), 19.9%.
Consider `O=C(O)c1ccc(-n2c(/C=C\c3ccccc3)nc3ccccc3c2=O)cc1`, for which the displacement was determined as 0.1%.
Under `COc1ccccc1N1C(=O)C2C3C=CC(O3)C2C1=O` (centres undefined) stands 3.7%.
Under `O=C(CSC1=NCCS1)Nc1cccc2ccccc12` stands -2.2%; under `Cc1ccc(C)n1/N=C1\NC(=O)CS1`, 42.5%; under `CN(C)CCCNC(=O)c1cc(Cl)ccc1Cl`, -1.6%.
Under `COc1ccc(C(=O)/C=C/NCc2ccccc2)cc1OC` stands 13.6%; under `COc1cc(C(=O)N2CCN(C3CCN(Cc4ccccc4)CC3)CC2)cc(OC)c1OC`, -16.7%.
Take `O=C(COc1ccccc1)Nc1ccc(Cl)cc1[N+](=O)[O-]`: the displacement is -11.3%.
The value for `O=C(c1c(Cl)cccc1Cl)N1CCN(c2ccc(F)cc2)CC1` was 9%; that for `C/C(Cc1ccccc1)=N/NC(=O)c1cc(-c2ccccc2)nc2ccccc12` was -15.7%; that for `COc1ccc(C(=O)NCc2ccccc2C)cc1` was 1.4%.
The value for `O=C1CN(S(=O)(=O)c2ccccc2)C(c2ccccc2)c2cc(Br)ccc2N1` (centres undefined) was 5.9%.
For the molecule `CCOc1ccc(-n2nc3ccc(NC(=O)c4ccc(C)c([N+](=O)[O-])c4)cc3n2)cc1`, the displacement was -9.3%.
Take `CCOc1ccc(NC(=O)c2cc(OCC)c(OCC)c(OCC)c2)c([N+](=O)[O-])c1`: the displacement was determined as 7.5%.
Under `CCCCOc1ccc(NC(=O)COc2ccc(C)cc2C)cc1` stands -3.8%.
`CCOc1cc(C(=S)N2CCOCC2)ccc1OC(=O)c1cccc([N+](=O)[O-])c1`: the displacement was 8.7%.
For the molecule `COc1cccc(OCC(=O)Nc2ccc(OC)c(OC)c2)c1`, the displacement is -0.7%.
Regarding `Cc1c(OCc2ccc(C(=O)O)cc2)ccc2c3c(c(=O)oc12)CCC3`, the displacement stood at 8.3%.
Under `CCOc1ccc(N2C(=O)/C(=C/c3ccc(C(=O)OC)cc3)SC2=S)cc1` stands 7.8%; under `COc1cc(C(=O)Nc2c(Cl)cccc2Cl)cc(OC)c1OC`, 1.7%.
Under `O=C(c1ccc(Cl)cc1)c1cc([N+](=O)[O-])ccc1Cl` stands 10.2%.
Turning to `Fc1ccc(-c2csc(Nc3ccc4c(c3)OCO4)n2)cc1`, the displacement was found to be 3.2%.
As for `Cc1cc(C)nc(/N=C(/N)Nc2ccc(C)c([N+](=O)[O-])c2)n1`, the displacement was 12%.
The value for `O=C1NC(=S)N/C1=C/c1ccc2c(c1)OCO2` was 43.8%; that for `CC1=C(C(=O)OCc2ccccc2)C(c2ccc(O)cc2)NC(=O)N1` (centres undefined) was 12.7%.
The value for `COc1ccc(S(=O)(=O)N(CC(=O)N[C@@H]2C[C@H]3CC[C@@H]2C3)c2ccc(C)cc2)cc1OC` was -7.7%.
Under `COc1ccc(N2CCSC2c2ccco2)cc1` (centres undefined) stands 12.3%; under `COc1ccc(/C=C(/c2ccccc2)c2nc3ccccc3[nH]2)cc1`, -17.4%.
Turning to `COc1ccccc1NC(=O)C1=C(C)NC(=O)NC1c1cccc(OC)c1OC` (centres undefined), the displacement is -7.9%.
Turning to `CC(=O)OC12CC3C(C1C(C)=NN2C(=O)C(=O)N1N=C(C)C2C4C(CC21OC(C)=O)C4(C)C)C3(C)C` (centres undefined), the displacement turned out to be 8.5%.
Under `Cc1ccc(NC(=O)c2cccc3ccccc23)c([N+](=O)[O-])c1` stands 13.9%; under `COc1cc(CN2CCN(C(=O)c3ccc(-c4ccccc4)cc3)CC2)cc(OC)c1OC`, -1.4%.
The value for `Cn1c2c(c(=O)n(C)c1=O)C(c1ccc(OC(=O)c3ccc(Br)cc3)cc1)C1C(=O)c3ccccc3C1=N2` (centres undefined) was 3%; that for `Cn1c(-c2ccccc2)c(-c2ccccc2)n(C)c1=O` was 4.7%.
As to `O=P(COc1ccccc1)(c1ccccc1)c1ccccc1`, the displacement is -3.3%.
The value for `O=C(Nc1ccc(S(=O)(=O)Nc2cnc3ccccc3n2)cc1)c1cc(Cl)ccc1[N+](=O)[O-]` was 14.3%; that for `O=C(Nc1ccccc1C(=O)Nc1ccccc1)c1ccccc1F` was -10%.
Under `O=C(Nc1ccc(S(=O)(=O)N2CCCCCC2)cc1)c1ccc(-c2ccccc2)cc1` stands 5.3%.
Under `O=C(O)c1cc([N+](=O)[O-])c(C(=O)O)cc1Oc1cc(Cl)c(Cl)cc1Cl` stands 3.3%; under `Cc1ccc([N+](=O)[O-])cc1S(=O)(=O)n1nnc2ccccc21`, 2.8%; under `N#C/C(=C\c1ccc(Cl)cc1)c1nn(CCO)c(N)c1C#N`, 11.2%.
On to `C=CCOc1ccc(/C=C2\C(=O)N(CCOC)C(C)=C2C(=O)OCC)cc1`, for which the displacement was -3.4%.
As to `CC(C)(C)C1=NN(C(=O)c2ccccc2)C(O)(C(C)(C)C)C1` (centres undefined), the displacement amounted to 11%.
Under `O=C1C2C3C=CC(C2C(=O)N1c1ccc(F)cc1)C1C(=O)N(c2ccc(F)cc2)C(=O)C31` (centres undefined) stands 3.3%; under `Cc1cc(NS(=O)(=O)c2ccc(Nc3nc(-c4ccccn4)cs3)cc2)no1`, 14.7%; under `c1cc2c3c(cccc3c1)-c1nc3nonc3nc1-2`, -9.1%.
The value for `COc1ccc(/C=C/C(=O)Nc2ccc(Cl)c3c2C(=O)c2ccccc2C3=O)cc1` was 12.8%; that for `COc1ccc(CNC(=O)COc2ccc(Br)c(C)c2)cc1` was -7.9%; that for `CN1C(=O)C2(NN=C(c3ccccc3)S2)c2ccccc21` (centres undefined) was -14.6%.
The value for `Cc1ccc(NC(=O)CN(c2cccc(Br)c2)S(=O)(=O)c2ccccc2)cc1C` was 4.5%; that for `O=C1CCCCCC1CN1CCCCC1` (centres undefined) was 9.8%.
In the case of `CCOc1ccc(C2OC3(C(=O)c4ccccc4C3=O)C3C(=O)N(c4ccc(Cl)cc4)C(=O)C23)cc1` (centres undefined), the displacement is 0.4%.
Take `Cc1cccc(N2C(=O)c3cccc4c(N5CCOCC5)ccc(c34)C2=O)c1`: the displacement came to 154%.
